# Assay results from the supplement of paper PMC3334620.
# Whole data set: some 33,000 sequences, median “E-score (-0.5 to 0.5)” near -0.012, cut for the highest 2% near 0.29. This is one part of the list.
# Target: T1, Ybr033w (UniProt P38073)
# T1 sequence: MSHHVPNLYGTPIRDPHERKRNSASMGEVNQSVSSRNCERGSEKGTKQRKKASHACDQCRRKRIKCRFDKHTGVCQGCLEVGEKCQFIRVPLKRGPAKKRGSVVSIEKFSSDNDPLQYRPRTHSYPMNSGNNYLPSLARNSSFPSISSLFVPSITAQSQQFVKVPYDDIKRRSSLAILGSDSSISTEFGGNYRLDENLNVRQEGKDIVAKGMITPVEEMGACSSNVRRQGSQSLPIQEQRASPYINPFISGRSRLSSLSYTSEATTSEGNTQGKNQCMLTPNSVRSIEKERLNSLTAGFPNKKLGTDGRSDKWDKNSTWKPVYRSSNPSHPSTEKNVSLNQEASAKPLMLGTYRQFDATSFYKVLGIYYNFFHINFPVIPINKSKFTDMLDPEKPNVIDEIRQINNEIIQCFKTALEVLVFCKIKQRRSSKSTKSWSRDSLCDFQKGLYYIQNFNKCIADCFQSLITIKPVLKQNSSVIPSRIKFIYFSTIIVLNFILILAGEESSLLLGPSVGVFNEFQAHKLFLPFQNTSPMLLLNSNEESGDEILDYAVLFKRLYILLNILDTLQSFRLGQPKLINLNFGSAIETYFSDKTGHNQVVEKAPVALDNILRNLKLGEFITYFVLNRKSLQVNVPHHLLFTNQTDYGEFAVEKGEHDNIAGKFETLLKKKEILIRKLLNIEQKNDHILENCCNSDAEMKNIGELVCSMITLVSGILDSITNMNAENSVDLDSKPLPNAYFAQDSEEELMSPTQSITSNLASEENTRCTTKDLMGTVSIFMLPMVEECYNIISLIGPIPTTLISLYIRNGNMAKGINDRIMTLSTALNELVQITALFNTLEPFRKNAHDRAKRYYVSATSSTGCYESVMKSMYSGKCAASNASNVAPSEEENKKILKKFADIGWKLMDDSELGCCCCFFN
# Assay: PBM E-score (8-mer binding enrichment) (E-score (-0.5 to 0.5)); higher = stronger / more preferred TF binding; most listed sequences are background and not binding sites
# Settings: protein concentration: 200 nM; construct: GST-full length
# Outline: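 Full-length yeast transcription factors or their DNA-binding domains, GST-tagged and expressed with PURExpress, were applied at about 100-200 nM to universal all-10-mer Agilent arrays. These arrays had been made double-stranded by primer extension on fresh or once-stripped slides. Detection used fluorescent anti-GST, normalisation used masliner, and E-scores for ungapped eight-base words pooled with reverse complements came from the Universal PBM Analysis Suite.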
row,Sequence,PBM E-score
1,GTCGTTAA,0.0872
2,CATTATGA,0.109
3,CACTAGTG,-0.192
4,AGCCCCTC,-0.244
5,CCCAAAAC,0.157
6,AGACGGGG,-0.216
7,TAATTATA,0.382
8,CTGAATAA,0.186
9,GGCGAAGA,-0.108
10,ATCGGGGC,-0.232
11,ACCAAGGA,0.114
12,ACTCTCCC,-0.139
13,AATAGACT,0.0343
14,ATAACCCC,-0.144
15,CCGTGTAC,0.181
16,CAGTACTA,0.0485
17,ATCAGTTG,0.0799
18,GATCTTGC,0.0857
19,CGACCAGA,0.0353
20,CTTCCATC,-0.00237
21,GAGCGATC,0.0201
22,TCGGCAAA,-0.0191
23,ATCGCACG,0.0266
24,GACATAGC,0.069
25,AAGCGCGA,-0.0839

row,Sequence,PBM E-score
1,CTCGAAGC,-0.0857
2,CGAAATAG,0.0397
3,ACCAGGAG,-0.0938
4,ACAAGACC,-0.142
5,AAGTAGAA,0.266
6,AGAGGTAC,-0.28
7,TCTGCGCA,0.0104
8,CTCATAAG,0.0574
9,CGTCCGAC,-0.198
10,CATCCCCC,-0.366
11,GGAACGAC,-0.144
12,GACGAAGC,-0.193
13,CTAATAGA,0.06
14,GCCGCGAA,-0.0581
15,ATATAGTA,0.28
16,GATTTTAC,0.161
17,ACTTGAGC,-0.259
18,ACATGAGT,-0.0296
19,CCTATATC,0.0627
20,AATTCCTC,0.123
21,GTCGTGGA,-0.0343
22,GACATCAC,-0.149
23,CCCCTGCA,-0.309
24,CAGTGGGC,-0.183
25,CAATGGCC,-0.296

row,Sequence,PBM E-score
1,CGGGTGCA,-0.195
2,GTAACTAA,0.115
3,AATGACTC,0.0434
4,ACAAGAGA,-0.0248
5,AATGACAG,-0.0979
6,GACTTGCC,-0.24
7,ATACATTC,0.126
8,CTAGGCAA,-0.121
9,CATCACGA,-0.0307
10,CTCTGTCC,-0.138
11,AGCCCGGA,-0.0682
12,CATATTGA,0.0393
13,CATTGGAG,-0.111
14,CAAACGCA,-0.0782
15,CGGTGCTA,-0.0592
16,CATCTAAC,-0.131
17,CTGGGTCC,-0.381
18,CCATGTCC,-0.152
19,CGAACGTA,-0.0312
20,GGCCGCAA,-0.0811
21,AATGTCGT,0.123
22,ACGGACCC,-0.266
23,AGAAAACT,0.227
24,GCGAACCC,-0.115
25,ACGTAAAT,-0.0471

row,Sequence,PBM E-score
1,AGAGACAC,-0.115
2,CGTTAGAA,0.0234
3,ACTTCCTA,0.093
4,AGCGCGTC,-0.242
5,ACACTAAA,0.266
6,GCAGCACC,-0.145
7,CAACAAGC,0.129
8,ACCGAAAA,0.234
9,ATATAGGC,0.173
10,GGGTGCTA,-0.128
11,GGGGCTAA,-0.171
12,AACCTTAA,0.217
13,GCAATTGC,-0.0889
14,AAAGTCTC,-0.149
15,TGATTTAA,0.201
16,CCACGTGA,-0.00623
17,ACAGCGAG,-0.0732
18,CCTATTTC,0.124
19,CGTACTCC,-0.0493
20,CCTGTATA,-0.00245
21,ACATTAAA,0.225
22,ATTTGGAG,-0.0991
23,GAGACGTA,0.0844
24,ACCCTATC,-0.133
25,TCTGAGCA,0.0208

row,Sequence,PBM E-score
1,AAGCTTAG,0.192
2,CGACAGGA,0.0781
3,AGTCATAT,0.219
4,ACCGATCG,-0.0706
5,GTCAGCCA,-0.14
6,AGTGCTAA,-0.0458
7,TACCTCCA,-0.107
8,ACACTACC,-0.00067
9,GCGCGGTA,-0.00808
10,AGGGATTG,0.0227
11,ACCTACGT,-0.114
12,CAACCCTG,-0.0479
13,CTACGAAG,-0.118
14,GGGACTTA,-0.128
15,CATGCACA,0.139
16,GCGCATGA,-0.276
17,ATCGCACA,0.0294
18,AACGTGGG,-0.125
19,CAATGTTC,0.205
20,ATGCTCTG,-0.111
21,AGCATCCG,-0.127
22,CCTCTCGA,-0.208
23,ACGGCGCC,-0.241
24,GGATTGTA,0.0654
25,CATCTGGA,-0.00738

row,Sequence,PBM E-score
1,CCTTCGAG,-0.224
2,GATTTTTA,0.209
3,CCGGCGTA,-0.21
4,GATAGCCC,-0.197
5,AACGTGCA,-0.15
6,AGCACTAG,0.0133
7,CTGATATA,0.118
8,GCAGATAC,-0.0897
9,GTTCATCA,0.0699
10,ACGACTCT,-0.113
11,CGATCACC,-0.0507
12,CTGCGAAA,-0.119
13,CTGTAGTA,0.282
14,AGCTGACT,-0.0611
15,CCGGGTAA,0.0724
16,GACTACCA,-0.0785
17,CGAGCCCC,-0.38
18,GAGGCTGC,-0.245
19,CCAATAGA,-0.00615
20,AACCGTGC,-0.129
21,ACATTCTA,-0.0592
22,CGATACCA,0.14
23,GGGTATAA,-0.135
24,CGGTAGCC,-0.105
25,CTGACTAA,0.00352

row,Sequence,PBM E-score
1,GAAGAATC,0.202
2,CTGTATCA,-0.15
3,AGTGGGAA,0.00886
4,ATTGTTGG,0.151
5,CAGTTCGA,-0.0318
6,CACTCTGA,-0.295
7,CACATTAG,-0.0472
8,ATTGCTAA,0.234
9,CGGAACTA,0.191
10,GGATATCC,0.177
11,AGACGACT,-0.0906
12,GAATATCC,0.227
13,AGGGAGGA,-0.326
14,ACTGTGGA,0.0104
15,GATCCGCC,0.0423
16,GTCGAGCA,-0.309
17,CGCCTGAC,-0.169
18,ATTCCCTG,0.0828
19,AGCAGTAG,-0.159
20,CCGCCTAG,-0.0786
21,AATGGTCC,0.223
22,GTAGCTAC,0.0147
